Consider one compound from PMC9865020, “Identification of Novel Small Molecule Ligands for JAK2 Pseudokinase Domain” (Pharmaceuticals, 2023).

In assay [1] the target is JAK2 JH2 V617F (Homo sapiens, UniProt O60674, V617F). The experiment in a line: More sensitive FP binding assay, Bodipy FL-labeled JNJ-7706621 tracer. Also on record: Hyperactive mutation V617F in the JAK2 regulatory pseudokinase domain (JH2); His tag (C); made in house; host or cells: High Five or Sf9 insect cells.
Assay [2] concerns the target T1, JAK2 JH2 wild-type (Homo sapiens, UniProt O60674).
T1 construct: Human JAK2 JH2 (503-827); hexa histidine-tag (C); made in house; host or cells: High Five or Sf9 insect cells
The experiment in a line: Fluorescence polarization binding assay, Bodipy FL-ATP tracer. The conditions noted are these: 100 µM analog concentration, FP. For orientation: Polarisation of emitted light reports the rotation of a fluorescent probe.

Assay [3] addresses JAK1 JH2 (Homo sapiens, UniProt P23458). The experiment in a line: More sensitive FP binding assay, Bodipy FL-labeled JNJ-7706621 tracer.
Assay [4] has as its system Ba/F3-hJAK2 wildtype cells. The assay can be described thus: alamarBlue cell viability assay. In kind it is cell-based, murine. The note with it: Mus musculus, 48 h, n=3, read-out: Cell viability IC50 Ba/F3-hJAK2 wt. For orientation: Resazurin is reduced to fluorescent resorufin, in cell work by metabolically active cells.
Assay [5] has as its target T2, JAK3 JH2 (Homo sapiens, UniProt P52333).
T2 sequence (P52333 511-790): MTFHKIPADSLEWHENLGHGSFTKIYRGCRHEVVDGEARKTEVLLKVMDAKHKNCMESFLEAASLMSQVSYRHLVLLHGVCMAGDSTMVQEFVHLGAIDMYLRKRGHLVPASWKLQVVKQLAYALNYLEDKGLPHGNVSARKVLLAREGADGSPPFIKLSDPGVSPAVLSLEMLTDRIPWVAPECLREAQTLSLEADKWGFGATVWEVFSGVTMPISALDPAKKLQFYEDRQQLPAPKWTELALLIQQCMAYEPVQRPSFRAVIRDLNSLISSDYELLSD
The assay can be described thus: More sensitive FP binding assay, Bodipy FL-labeled JNJ-7706621 tracer.

Assay [6] deals with JAK3 JH1 D949N (Homo sapiens, UniProt P52333, D949N). Described as above.
Assay [7] relates to SET-2 cells. The assay can be described thus: alamarBlue cell viability assay. The conditions noted are these: Homo sapiens, SET-2 (JAK2 V617F heterozygous), 48 h, upper detection limit 40 µM. In kind it is cell-based.
The target of assay [8] is T3, JAK2 JH1 D976N (Homo sapiens, UniProt O60674, D976N). The assay can be described thus: More sensitive FP binding assay, Bodipy FL-labeled JNJ-7706621 tracer. Also on record: JAK2 JH1 (836-1132) D976N; hexa histidine-tag (C); made in house; host or cells: High Five or Sf9 insect cells.
Assay [9] concerns the target T4, JAK2 JH2 (Homo sapiens, UniProt O60674).
T4 construct: Human JAK2 JH2 (503-827); hexa histidine-tag (C); made in house; host or cells: High Five or Sf9 insect cells
The description is as above.

Assay [10] has as its system Ba/F3 hJAK2 V617F cells. The assay can be described thus: alamarBlue cell viability assay. In kind it is cell-based, murine. The note with it: Mus musculus, BaF3, 48 h, n=3.
Assay [11] addresses TYK2 JH2 (Homo sapiens, UniProt P29597). The experiment in a line: More sensitive FP binding assay, Bodipy FL-labeled JNJ-7706621 tracer.
The test system of assay [12] is HEL cells. The assay can be described thus: alamarBlue cell viability assay. In kind it is cell-based. The conditions noted are these: Homo sapiens, HEL (JAK2 V617F homozygous), 48 h, upper detection limit 40 µM.
Assay [13] concerns the target T3, JAK2 JH1 D976N. The experiment in a line: Fluorescence polarization binding assay, Bodipy FL-ATP tracer. The note with it: read-out: inhibition-% of tracer binding to JAK2 JH1.
The target in assay [14] is T5, TYK2 JH1 D1023N (Homo sapiens, UniProt P29597, D1023N).
T5 sequence (P29597 886-1187 D1023N): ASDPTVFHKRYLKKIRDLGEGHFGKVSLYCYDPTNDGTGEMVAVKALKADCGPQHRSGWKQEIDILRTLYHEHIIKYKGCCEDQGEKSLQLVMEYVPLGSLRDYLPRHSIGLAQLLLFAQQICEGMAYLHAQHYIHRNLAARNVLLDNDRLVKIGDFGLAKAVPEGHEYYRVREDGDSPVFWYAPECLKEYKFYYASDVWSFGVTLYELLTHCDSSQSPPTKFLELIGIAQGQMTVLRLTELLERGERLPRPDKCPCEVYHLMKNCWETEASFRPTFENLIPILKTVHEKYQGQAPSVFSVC
The assay can be described thus: More sensitive FP binding assay, Bodipy FL-labeled JNJ-7706621 tracer.

The target in assay [15] is JAK1 JH1 D1003N (Homo sapiens, UniProt P23458, D1003N). The assay is described as above.

SMILES strings stand for the structures. A value given as a limit tells only on which side of the number the result lay.

Take `Cc1ccsc1CN(C)Cc1nc(N)nc(Nc2ccccc2)n1` [Compound 24]: the IC50 was 24 µM in assay [1]; > 100 µM in assay [3]; > 40 µM in assay [4]; > 100 µM in assay [5]; > 100 µM in assay [6]; > 40 µM in [7]. Besides, the IC50 in [8] is > 100 µM; in assay [9], 70 µM; in assay [10] it was > 40 µM; in [11], > 100 µM; in assay [12], > 40 µM; in assay [14] it was > 100 µM. Further, the IC50 in [15] was > 100 µM. Moreover, the “binding to JAK2 JH2 V617F stronger than to JAK2 JH2 wt” value in [1] (from Table 2 binding IC50) is recorded as 2- to 3 fold. In addition, the inhibition at 100 µM in [2] worked out at 85%; in assay [13] it was 13%.

What is called inhibition is the percentage by which the read-out fell short of the control.
